Results are given in words; binding and its absence hold for the method and conditions named. For some of these results: Binding seen in cells or lysates may run through a third protein. Some binding calls cover weakened binding; strength is not graded here. For some of these results: Tags and fused reporters may be left off the sequences shown. One block for each molecule: values may come before it.
What was measured:
[1] = biological target: T1, TRIP6, endogenous in mouse embryonic fibroblasts (mouse (endogenous in LPA1/2 DKO MEFs)) (UniProt Q9Z1Y4); assay: condition: only with knockdown of TRAF6 (TRAF6 shRNA); co-IP; as a15, in MEFs with TRAF6 shRNA
T1 sequence: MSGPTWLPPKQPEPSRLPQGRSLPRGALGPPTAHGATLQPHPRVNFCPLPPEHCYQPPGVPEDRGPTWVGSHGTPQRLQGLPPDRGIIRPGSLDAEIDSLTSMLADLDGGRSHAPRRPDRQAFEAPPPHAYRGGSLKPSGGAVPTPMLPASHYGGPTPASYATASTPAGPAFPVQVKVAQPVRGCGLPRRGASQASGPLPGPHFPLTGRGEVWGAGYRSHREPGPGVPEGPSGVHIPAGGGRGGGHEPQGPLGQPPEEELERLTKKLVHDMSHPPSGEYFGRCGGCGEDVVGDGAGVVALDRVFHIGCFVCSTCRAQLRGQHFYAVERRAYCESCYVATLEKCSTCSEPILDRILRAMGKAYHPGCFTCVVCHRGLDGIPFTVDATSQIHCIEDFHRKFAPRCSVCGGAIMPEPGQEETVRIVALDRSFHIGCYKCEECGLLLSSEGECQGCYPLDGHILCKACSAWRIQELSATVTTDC

Chains of the proteins cited; added tags and fusions are not shown.
UniProt Q04207: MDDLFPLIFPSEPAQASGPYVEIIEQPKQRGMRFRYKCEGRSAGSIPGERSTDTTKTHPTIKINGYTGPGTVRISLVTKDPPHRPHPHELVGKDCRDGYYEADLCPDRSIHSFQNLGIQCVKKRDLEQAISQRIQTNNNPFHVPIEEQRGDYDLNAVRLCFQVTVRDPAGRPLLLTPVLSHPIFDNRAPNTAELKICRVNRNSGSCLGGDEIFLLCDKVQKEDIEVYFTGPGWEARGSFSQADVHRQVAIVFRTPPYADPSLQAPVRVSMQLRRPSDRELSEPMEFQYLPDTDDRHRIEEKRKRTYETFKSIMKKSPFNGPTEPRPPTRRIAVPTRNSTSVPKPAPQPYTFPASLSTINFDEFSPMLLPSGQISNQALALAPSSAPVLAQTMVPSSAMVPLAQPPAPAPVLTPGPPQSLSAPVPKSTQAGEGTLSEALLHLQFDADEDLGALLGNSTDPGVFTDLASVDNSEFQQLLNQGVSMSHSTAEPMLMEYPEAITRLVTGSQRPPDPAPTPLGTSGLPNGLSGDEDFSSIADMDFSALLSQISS

[2] = biological target: T1, TRIP6, endogenous in mouse embryonic fibroblasts (mouse (endogenous in LPA1/2 DKO MEFs)); assay: co-IP; cytosolic endogenous TRIP6 immunoprecipitated with anti-TRIP6 mouse monoclonal antibody from LPA1/2 DKO MEFs expressing LPA2 receptor and scrambled shRNA; starved 6 h, LPA 1 h; immunoblot for NF-κB p65
[3] = biological target: T2, FLAG-TRAF6 (UniProt P70196); assay: co-IP; FLAG-TRAF6 immunoprecipitated from HEK293T without or with co-expressed TRIP6 as competitor (HA-TRIP6; EGFP-TRIP6 or its deletion mutants); starved 6 h, without or with LPA; immunoblot for endogenous A20, CYLD
T2 sequence: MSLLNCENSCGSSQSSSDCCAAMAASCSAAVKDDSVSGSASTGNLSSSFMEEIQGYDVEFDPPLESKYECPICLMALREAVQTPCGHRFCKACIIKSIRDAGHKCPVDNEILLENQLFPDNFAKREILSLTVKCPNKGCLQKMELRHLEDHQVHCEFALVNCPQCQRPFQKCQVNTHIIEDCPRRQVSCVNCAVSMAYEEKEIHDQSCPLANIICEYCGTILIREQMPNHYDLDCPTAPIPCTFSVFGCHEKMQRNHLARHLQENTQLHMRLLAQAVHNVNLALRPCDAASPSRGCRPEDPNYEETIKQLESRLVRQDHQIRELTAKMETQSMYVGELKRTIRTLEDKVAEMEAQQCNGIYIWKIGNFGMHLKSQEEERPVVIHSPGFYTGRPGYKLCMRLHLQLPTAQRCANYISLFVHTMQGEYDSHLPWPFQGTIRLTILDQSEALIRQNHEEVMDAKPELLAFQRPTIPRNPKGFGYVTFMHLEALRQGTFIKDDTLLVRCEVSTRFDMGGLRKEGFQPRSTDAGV

[4] = biological target: T2, FLAG-TRAF6; assay: co-IP; FLAG-TRAF6 immunoprecipitated with anti-FLAG M2 agarose from HEK293T; starved 6 h, LPA for the indicated times; immunoblot for endogenous CYLD, A20, TRIP6
[5] = biological target: T3, GST-TRAF6 (UniProt P70196); assay: pull-down; purified recombinant TRIP6 incubated with GST, GST-TRAF6 or GST-CT, 4 °C, 3 h; anti-TRIP6 immunoblot; both purified
T3 sequence: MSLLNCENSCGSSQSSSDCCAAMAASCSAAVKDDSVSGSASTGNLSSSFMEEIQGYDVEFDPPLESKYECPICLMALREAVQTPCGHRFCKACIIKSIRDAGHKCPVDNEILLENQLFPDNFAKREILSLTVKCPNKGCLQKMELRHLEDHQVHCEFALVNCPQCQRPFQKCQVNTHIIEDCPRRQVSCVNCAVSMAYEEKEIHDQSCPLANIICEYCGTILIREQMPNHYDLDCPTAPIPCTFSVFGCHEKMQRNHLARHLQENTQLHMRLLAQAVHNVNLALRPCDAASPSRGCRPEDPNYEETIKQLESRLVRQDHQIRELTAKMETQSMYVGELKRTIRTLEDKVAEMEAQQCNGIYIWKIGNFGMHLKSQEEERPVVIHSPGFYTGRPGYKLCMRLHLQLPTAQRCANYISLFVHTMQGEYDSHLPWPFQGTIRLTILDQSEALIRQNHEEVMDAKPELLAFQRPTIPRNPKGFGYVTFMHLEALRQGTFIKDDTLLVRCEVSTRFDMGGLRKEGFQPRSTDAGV

[6] = biological target: T4, purified recombinant TRAF6 (UniProt P70196); assay: pull-down; FLAG-A20 immunoprecipitated on anti-FLAG M2 agarose from LPA-treated HEK293T (RIPA buffer); beads incubated with 0.1 μg purified recombinant TRAF6 without or with 0.1 μg purified recombinant TRIP6, 4 °C, 3 h; washed four times; immunoblot; both purified
T4 sequence: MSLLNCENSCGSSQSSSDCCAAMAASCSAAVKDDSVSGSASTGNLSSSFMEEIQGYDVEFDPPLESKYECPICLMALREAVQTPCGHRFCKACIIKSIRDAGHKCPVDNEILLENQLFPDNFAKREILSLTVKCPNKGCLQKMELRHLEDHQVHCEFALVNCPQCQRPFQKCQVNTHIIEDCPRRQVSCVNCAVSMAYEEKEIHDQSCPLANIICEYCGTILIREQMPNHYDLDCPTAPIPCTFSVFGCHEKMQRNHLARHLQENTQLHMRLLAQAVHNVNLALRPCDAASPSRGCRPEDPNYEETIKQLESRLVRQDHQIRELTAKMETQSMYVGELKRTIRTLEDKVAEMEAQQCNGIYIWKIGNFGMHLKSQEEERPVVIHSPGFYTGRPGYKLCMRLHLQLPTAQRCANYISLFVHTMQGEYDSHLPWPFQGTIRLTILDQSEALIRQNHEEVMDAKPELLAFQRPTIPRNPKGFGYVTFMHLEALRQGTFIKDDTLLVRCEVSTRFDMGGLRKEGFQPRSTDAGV

[7] = biological target: T5, FLAG-TRIP6 mutant containing three LIM domains (residues 220–476) (UniProt Q15654); assay: co-IP; FLAG-TRIP6 constructs co-expressed with EGFP-tagged TRAF6 domains in HEK293T; anti-FLAG M2 immunoprecipitation; anti-GFP immunoblot
T5 sequence: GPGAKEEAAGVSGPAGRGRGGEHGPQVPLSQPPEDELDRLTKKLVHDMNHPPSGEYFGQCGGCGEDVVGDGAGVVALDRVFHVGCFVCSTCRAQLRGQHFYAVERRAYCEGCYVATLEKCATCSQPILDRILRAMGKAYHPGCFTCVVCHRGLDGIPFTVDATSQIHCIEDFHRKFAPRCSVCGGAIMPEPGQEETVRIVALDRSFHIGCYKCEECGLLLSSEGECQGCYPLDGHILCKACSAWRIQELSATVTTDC

[8] = biological target: T6, FLAG-TRIP6 mutant containing the pre-LIM region (residues 1–278) (UniProt Q15654); assay: as above
T6 sequence: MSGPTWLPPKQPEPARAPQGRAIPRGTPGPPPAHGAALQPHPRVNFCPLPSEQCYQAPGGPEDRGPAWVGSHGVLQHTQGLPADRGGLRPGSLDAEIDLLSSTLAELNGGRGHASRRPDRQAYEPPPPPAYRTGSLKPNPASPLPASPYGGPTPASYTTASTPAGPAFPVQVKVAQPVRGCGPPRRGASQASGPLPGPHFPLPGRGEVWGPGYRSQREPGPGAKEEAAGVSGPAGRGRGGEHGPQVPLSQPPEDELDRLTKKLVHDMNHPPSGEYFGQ

B1: EGFP-1–397 deletion mutant of TRIP6 (domain or fragment, UniProt Q15654 1-397)
chain: MSGPTWLPPKQPEPARAPQGRAIPRGTPGPPPAHGAALQPHPRVNFCPLPSEQCYQAPGGPEDRGPAWVGSHGVLQHTQGLPADRGGLRPGSLDAEIDLLSSTLAELNGGRGHASRRPDRQAYEPPPPPAYRTGSLKPNPASPLPASPYGGPTPASYTTASTPAGPAFPVQVKVAQPVRGCGPPRRGASQASGPLPGPHFPLPGRGEVWGPGYRSQREPGPGAKEEAAGVSGPAGRGRGGEHGPQVPLSQPPEDELDRLTKKLVHDMNHPPSGEYFGQCGGCGEDVVGDGAGVVALDRVFHVGCFVCSTCRAQLRGQHFYAVERRAYCEGCYVATLEKCATCSQPILDRILRAMGKAYHPGCFTCVVCHRGLDGIPFTVDATSQIHCIEDFHRKFAP
binding [3]: binds

B2: HA-TRIP6 (protein, UniProt Q15654 1-476)
chain: MSGPTWLPPKQPEPARAPQGRAIPRGTPGPPPAHGAALQPHPRVNFCPLPSEQCYQAPGGPEDRGPAWVGSHGVLQHTQGLPADRGGLRPGSLDAEIDLLSSTLAELNGGRGHASRRPDRQAYEPPPPPAYRTGSLKPNPASPLPASPYGGPTPASYTTASTPAGPAFPVQVKVAQPVRGCGPPRRGASQASGPLPGPHFPLPGRGEVWGPGYRSQREPGPGAKEEAAGVSGPAGRGRGGEHGPQVPLSQPPEDELDRLTKKLVHDMNHPPSGEYFGQCGGCGEDVVGDGAGVVALDRVFHVGCFVCSTCRAQLRGQHFYAVERRAYCEGCYVATLEKCATCSQPILDRILRAMGKAYHPGCFTCVVCHRGLDGIPFTVDATSQIHCIEDFHRKFAPRCSVCGGAIMPEPGQEETVRIVALDRSFHIGCYKCEECGLLLSSEGECQGCYPLDGHILCKACSAWRIQELSATVTTDC
binding [3]: binds

B4: TRIP6 (thyroid hormone receptor-interacting protein 6), endogenous (protein, UniProt Q15654 1-476)
chain: MSGPTWLPPKQPEPARAPQGRAIPRGTPGPPPAHGAALQPHPRVNFCPLPSEQCYQAPGGPEDRGPAWVGSHGVLQHTQGLPADRGGLRPGSLDAEIDLLSSTLAELNGGRGHASRRPDRQAYEPPPPPAYRTGSLKPNPASPLPASPYGGPTPASYTTASTPAGPAFPVQVKVAQPVRGCGPPRRGASQASGPLPGPHFPLPGRGEVWGPGYRSQREPGPGAKEEAAGVSGPAGRGRGGEHGPQVPLSQPPEDELDRLTKKLVHDMNHPPSGEYFGQCGGCGEDVVGDGAGVVALDRVFHVGCFVCSTCRAQLRGQHFYAVERRAYCEGCYVATLEKCATCSQPILDRILRAMGKAYHPGCFTCVVCHRGLDGIPFTVDATSQIHCIEDFHRKFAPRCSVCGGAIMPEPGQEETVRIVALDRSFHIGCYKCEECGLLLSSEGECQGCYPLDGHILCKACSAWRIQELSATVTTDC
binding [4]: binds

B7: EGFP fusion protein containing the RING domain (residues 1–149) of TRAF6 (domain or fragment, UniProt P70196 1-149)
chain: MSLLNCENSCGSSQSSSDCCAAMAASCSAAVKDDSVSGSASTGNLSSSFMEEIQGYDVEFDPPLESKYECPICLMALREAVQTPCGHRFCKACIIKSIRDAGHKCPVDNEILLENQLFPDNFAKREILSLTVKCPNKGCLQKMELRHLE
binding [7]: binds | binding [8]: no binding

The next lines start with the values.

binding [1]: no binding | binding [2]: binds
Molecule: NF-κB p65, endogenous in mouse embryonic fibroblasts (from UniProt Q04207 1-549)

binding [3]: binds
B3: EGFP-TRIP6 (protein, UniProt Q15654 1-476)
chain: MSGPTWLPPKQPEPARAPQGRAIPRGTPGPPPAHGAALQPHPRVNFCPLPSEQCYQAPGGPEDRGPAWVGSHGVLQHTQGLPADRGGLRPGSLDAEIDLLSSTLAELNGGRGHASRRPDRQAYEPPPPPAYRTGSLKPNPASPLPASPYGGPTPASYTTASTPAGPAFPVQVKVAQPVRGCGPPRRGASQASGPLPGPHFPLPGRGEVWGPGYRSQREPGPGAKEEAAGVSGPAGRGRGGEHGPQVPLSQPPEDELDRLTKKLVHDMNHPPSGEYFGQCGGCGEDVVGDGAGVVALDRVFHVGCFVCSTCRAQLRGQHFYAVERRAYCEGCYVATLEKCATCSQPILDRILRAMGKAYHPGCFTCVVCHRGLDGIPFTVDATSQIHCIEDFHRKFAPRCSVCGGAIMPEPGQEETVRIVALDRSFHIGCYKCEECGLLLSSEGECQGCYPLDGHILCKACSAWRIQELSATVTTDC

binding [5]: binds | binding [6]: binds
B5: purified recombinant TRIP6 (protein, UniProt Q15654 1-476)
chain: MSGPTWLPPKQPEPARAPQGRAIPRGTPGPPPAHGAALQPHPRVNFCPLPSEQCYQAPGGPEDRGPAWVGSHGVLQHTQGLPADRGGLRPGSLDAEIDLLSSTLAELNGGRGHASRRPDRQAYEPPPPPAYRTGSLKPNPASPLPASPYGGPTPASYTTASTPAGPAFPVQVKVAQPVRGCGPPRRGASQASGPLPGPHFPLPGRGEVWGPGYRSQREPGPGAKEEAAGVSGPAGRGRGGEHGPQVPLSQPPEDELDRLTKKLVHDMNHPPSGEYFGQCGGCGEDVVGDGAGVVALDRVFHVGCFVCSTCRAQLRGQHFYAVERRAYCEGCYVATLEKCATCSQPILDRILRAMGKAYHPGCFTCVVCHRGLDGIPFTVDATSQIHCIEDFHRKFAPRCSVCGGAIMPEPGQEETVRIVALDRSFHIGCYKCEECGLLLSSEGECQGCYPLDGHILCKACSAWRIQELSATVTTDC

binding [7]: no binding | binding [8]: no binding
B6: EGFP fusion protein containing the zinc-finger (ZF) domains (residues 119–238) of TRAF6 (domain or fragment, UniProt P70196 119-238)
chain: PDNFAKREILSLTVKCPNKGCLQKMELRHLEDHQVHCEFALVNCPQCQRPFQKCQVNTHIIEDCPRRQVSCVNCAVSMAYEEKEIHDQSCPLANIICEYCGTILIREQMPNHYDLDCPTA

binding [3]: binds
B8: EGFP-1–350 mutant of TRIP6 (domain or fragment, UniProt Q15654 1-350)
chain: MSGPTWLPPKQPEPARAPQGRAIPRGTPGPPPAHGAALQPHPRVNFCPLPSEQCYQAPGGPEDRGPAWVGSHGVLQHTQGLPADRGGLRPGSLDAEIDLLSSTLAELNGGRGHASRRPDRQAYEPPPPPAYRTGSLKPNPASPLPASPYGGPTPASYTTASTPAGPAFPVQVKVAQPVRGCGPPRRGASQASGPLPGPHFPLPGRGEVWGPGYRSQREPGPGAKEEAAGVSGPAGRGRGGEHGPQVPLSQPPEDELDRLTKKLVHDMNHPPSGEYFGQCGGCGEDVVGDGAGVVALDRVFHVGCFVCSTCRAQLRGQHFYAVERRAYCEGCYVATLEKCATCSQPILDRI

Reference: article PMC4850058, “TRIP6 antagonizes the recruitment of A20 and CYLD to TRAF6 to promote the LPA2 receptor-mediated TRAF6 activation” (Cell Discovery, 2016)
